# Values joined by “and” are separate entries in the source; they are usually repeats but may differ in a detail not shown here. Equal entries are not always repeated. This list was built around the results that the source calls inconclusive (neither active nor inactive); the mix of calls is not that of the screen. For some assays here: Potencies of inconclusive entries are doubtful fits and often do not repeat. Active and inactive are the calls of the source. Unless noted, calls come from the whole dose curve; as a rule, active = well fitted curve in the direction sought with a large enough effect in the repeat runs; inconclusive = weak or mixed curves; inactive = no such curve, though single readings can be large; an effect the other way counts as inactive or inconclusive. Square brackets hold non-standard residues; d marks the D form. Peptide text beside a SMILES is read from it. Orn = NCCC[C@H](N)C(=O)O
# What was measured:
# [1] = qHTS assay for small molecules that induce genotoxicity in human embryonic kidney cells expressing luciferase-tagged ATAD5 - cell viability (AID 651634; calls by dose curve; note: nearly all actives have a fitted effect of over 25% in size)
# Method in brief: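 15.5 hr compound or vehicle exposure of HEK293T cells expressing luciferase-tagged ATAD5 at 37C; live-cell protease activity is read by fluorescence after 30 min of CellTiter-Fluor.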
# [2] = qHTS assay to identify small molecule antagonists of the thyroid receptor (TR) signaling pathway (AID 743065); note: nearly all actives have a fitted effect of over 55% in size
# Method in brief: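 GH3.TRE-Luc rat pituitary cells carrying two TR response elements driving luciferase were plated for 4 h, given compound plus 1 nM T3 (final), and incubated 23.5 h at 37 C. ONE-Glo luminescence measured reporter inhibition; CellTiter-Fluor fluorescence tracked cytotoxicity.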
# [3] = target: Androgen receptor (Homo sapiens) (UniProt P10275); experiment: qHTS assay to identify small molecule antagonists of the androgen receptor (AR) signaling pathway (AID 743035; active = well fitted inhibition curve with a large enough effect in the signal ratio in the repeat runs, not every such curve was filed as active; inconclusive = weak or mixed curves, or effect the other way; inactive = no such curve, though single readings can be large or run the other way; the % refers to the signal ratio; for activity change, negative = inhibition: % is set by controls: 0 for no effect and ±100 for the full control effect); settings: HEK293 AR-UAS-bla, R1881-stimulated, beta-lactamase FRET, 16 h; activity change, negative = inhibition: at 58.5 µM (top of the series) unless noted
# Method in brief: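 R1881 agonist challenge of a HEK293 UAS-beta-lactamase AR reporter line in the presence of compound (16 h, 37C); signal taken as FRET fluorescence after 2 h with LiveBLAzer B/G substrate at room temperature.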
# [4] = target: Estrogen receptor (Homo sapiens) (UniProt P03372); experiment: qHTS assay to identify small molecule agonists of the estrogen receptor alpha (ER-alpha) signaling pathway (AID 743075; calls by dose curve;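 note: HEK293 GripTite cells with ER-alpha and UAS-driven beta-lactamase reporter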; for activation: % is set by controls: 0 for no effect and ±100 for the full control effect); settings: HEK293 ER-alpha-UAS-bla, beta-lactamase FRET ratio, 18 h; activation: at 70.1 µM (top of the series)
# [5] = target: Aryl hydrocarbon receptor (Homo sapiens) (UniProt P35869); experiment: qHTS assay to identify small molecule that activate the aryl hydrocarbon receptor (AhR) signaling pathway (AID 743085); note: nearly all actives have a fitted effect of over 15% in size;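 for activation: HG2L7.5c1 human HepG2 liver cells with stably integrated DRE-driven firefly reporter; % is set by controls: 0 for no effect and ±100 for the full control effect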
# Method in brief: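 Luminescence read-out: ONE-Glo reagent, 30 min at room temperature, in HG2L7.5c1 HepG2 reporter cells treated 24 h at 37C. Viability was measured beforehand by CellTiter-Fluor fluorescence after 30 min at 37C.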
# [6] = qHTS assay for small molecule disruptors of the mitochondrial membrane potential - cell viability (AID 720634; calls by dose curve; note: nearly all actives have a fitted effect of over 20% in size)
# Method in brief: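 In this qHTS format, HepG2 cells plated overnight were pinned with compound, incubated 1 hr, and assayed for ATP luminescence with CellTiter-Glo after m-MPI dye addition.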
# Aromatase (Homo sapiens) = Aromatase (Homo sapiens) (UniProt P11511); experiment: qHTS assay to identify aromatase inhibitors (AID 743083); note: nearly all actives have a fitted effect of over 55% in size
# [7] = qHTS assay to identify small molecule that activate the aryl hydrocarbon receptor (AhR) signaling pathway - cell viability counter screen (AID 743086); note: nearly all actives have a fitted effect of over 45% in size
# Method in brief: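 HepG2-AhR-luc (HG2L7.5c1) cells, 4000/well, were preincubated 5 h at 37C, exposed to compound in qHTS format for 24 hr at 37C, then given CellTiter-Fluor for 30 min; viability was read as fluorescence in the reporter wells.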
# [8] = qHTS assay to test for compound auto fluorescence at 460 nm (blue) in HEK293 cell free culture (AID 720681)
# Method in brief: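 Test compounds were pinned into cell-free culture medium (DMEM with 10% FBS) and fluorescence was read directly at Ex/Em 405/460 nm. Signals were expressed as fluorescence equivalents of triamterene, with DMSO vehicle as control.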
# [9] = qHTS assay to test for compound auto fluorescence at 460 nm (blue) in HepG2 cell free culture (AID 720685)
# Method in brief: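 Cell-free plates of MEM plus 10% FBS received 23 nL compound or DMSO vehicle; blue-channel (405/460 nm) intensity scored against triamterene as reference fluorophore.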
# [10] = qHTS assay to test for compound auto fluorescence at 460 nm (blue) in HepG2 cells (AID 720687)
# Method in brief: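 Cells (2,000/well in MEM with 10% FBS) attached overnight at 37 C, then were exposed to compound or DMSO for 1 hr at 37 C, 5% CO2. Fluorescence read at Ex/Em 405/460 nm, expressed as triamterene-equivalent signal.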
# [11] = target: Androgen receptor (Homo sapiens) (UniProt P10275); experiment: qHTS assay to identify small molecule agonists of the androgen receptor (AR) signaling pathway (AID 743036; active = well fitted activation curve with a large enough effect in the signal ratio in the repeat runs, with a control signal flat, not every such curve was filed as active; inconclusive = weak or mixed curves, or effect the other way; inactive = no such curve, though single readings can be large or run the other way; the % refers to the signal ratio); settings: HEK293 AR-UAS-bla GripTite, beta-lactamase FRET ratio, 16 h; activation: at 62.4 µM (top of the series) unless noted
# Method in brief: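 AR-bla HEK293 cells, 2,000/well; 4 h preincubation 37C/5% CO2; compound (DMSO) 16 h at 37C; LiveBLAzer B/G FRET substrate 2 h RT; fluorescence intensity read-out.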
# [12] = target: Androgen receptor (Homo sapiens) (UniProt P10275); experiment: qHTS assay to identify small molecule antagonists of the androgen receptor (AR) signaling pathway using the MDA cell line (AID 743042; note: nearly all actives have a fitted effect of over 55% in size)
# Method in brief: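 MDA-kb2 cells (human breast carcinoma, stably carrying an MMTV-luciferase reporter responsive to AR and GR) were plated at 3,000 cells/well and preincubated 5 hr at 37C, then given compound plus R1881 agonist for 16 h. ONE-Glo luminescence was read.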
# Potency is the fitted concentration of half-maximal effect; tags give direction and shape of the fitted curve or compound fluorescence and quenching.
# Sequence of UniProt P35869 (P35869 whole entry, looked up): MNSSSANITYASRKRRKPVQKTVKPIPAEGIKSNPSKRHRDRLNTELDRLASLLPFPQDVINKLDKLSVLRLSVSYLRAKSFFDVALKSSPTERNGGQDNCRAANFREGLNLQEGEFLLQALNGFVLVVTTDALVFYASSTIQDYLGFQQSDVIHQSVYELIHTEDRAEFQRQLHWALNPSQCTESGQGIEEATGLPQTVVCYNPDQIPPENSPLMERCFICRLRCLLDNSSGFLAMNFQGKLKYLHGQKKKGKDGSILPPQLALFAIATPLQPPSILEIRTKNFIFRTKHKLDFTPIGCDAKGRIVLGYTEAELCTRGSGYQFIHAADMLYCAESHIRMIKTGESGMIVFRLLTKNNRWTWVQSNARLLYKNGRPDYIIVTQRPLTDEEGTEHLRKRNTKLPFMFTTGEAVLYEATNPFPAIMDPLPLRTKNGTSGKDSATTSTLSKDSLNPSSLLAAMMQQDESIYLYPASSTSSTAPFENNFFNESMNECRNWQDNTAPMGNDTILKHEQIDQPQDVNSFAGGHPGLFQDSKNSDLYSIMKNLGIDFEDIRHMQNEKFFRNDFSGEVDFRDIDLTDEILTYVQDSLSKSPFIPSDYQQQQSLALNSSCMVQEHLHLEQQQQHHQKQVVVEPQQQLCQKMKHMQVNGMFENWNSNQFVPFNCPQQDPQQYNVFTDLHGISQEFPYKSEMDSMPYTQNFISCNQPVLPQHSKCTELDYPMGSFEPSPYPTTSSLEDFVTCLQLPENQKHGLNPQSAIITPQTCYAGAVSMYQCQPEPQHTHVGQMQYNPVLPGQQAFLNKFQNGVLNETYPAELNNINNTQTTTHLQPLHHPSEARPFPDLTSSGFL
# Sequence of UniProt P03372 (P03372 whole entry, looked up): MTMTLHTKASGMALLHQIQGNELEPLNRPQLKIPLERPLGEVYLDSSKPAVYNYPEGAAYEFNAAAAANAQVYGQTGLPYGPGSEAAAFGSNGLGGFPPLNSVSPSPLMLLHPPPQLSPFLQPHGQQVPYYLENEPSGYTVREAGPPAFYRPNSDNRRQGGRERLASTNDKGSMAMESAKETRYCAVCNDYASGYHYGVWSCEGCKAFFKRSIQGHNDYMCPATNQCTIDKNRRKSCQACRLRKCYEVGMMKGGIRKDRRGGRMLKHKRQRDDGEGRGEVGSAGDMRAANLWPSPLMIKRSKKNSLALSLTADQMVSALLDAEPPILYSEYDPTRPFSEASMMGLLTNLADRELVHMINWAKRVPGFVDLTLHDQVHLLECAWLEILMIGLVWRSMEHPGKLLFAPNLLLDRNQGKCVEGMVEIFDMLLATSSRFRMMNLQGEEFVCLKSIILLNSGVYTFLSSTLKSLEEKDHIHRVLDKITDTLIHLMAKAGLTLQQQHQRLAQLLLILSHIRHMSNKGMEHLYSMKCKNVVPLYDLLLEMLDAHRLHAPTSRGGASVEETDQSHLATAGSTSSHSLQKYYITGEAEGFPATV
# Sequence of UniProt P11511 (P11511 whole entry, looked up): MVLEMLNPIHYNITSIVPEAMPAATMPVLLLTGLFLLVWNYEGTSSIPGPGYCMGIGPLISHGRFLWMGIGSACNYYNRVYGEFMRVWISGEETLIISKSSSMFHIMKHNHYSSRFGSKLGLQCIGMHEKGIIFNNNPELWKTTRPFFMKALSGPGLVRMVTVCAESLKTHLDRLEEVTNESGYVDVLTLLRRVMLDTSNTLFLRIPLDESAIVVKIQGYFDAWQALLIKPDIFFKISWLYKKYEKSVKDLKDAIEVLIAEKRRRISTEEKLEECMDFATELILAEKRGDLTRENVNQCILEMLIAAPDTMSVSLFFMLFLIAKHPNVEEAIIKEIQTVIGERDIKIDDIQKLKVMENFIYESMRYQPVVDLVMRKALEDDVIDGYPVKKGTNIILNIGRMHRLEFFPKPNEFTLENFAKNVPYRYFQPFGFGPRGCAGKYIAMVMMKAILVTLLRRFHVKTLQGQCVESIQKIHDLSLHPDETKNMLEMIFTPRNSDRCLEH
# Sequence of UniProt P10275 (P10275 whole entry, looked up): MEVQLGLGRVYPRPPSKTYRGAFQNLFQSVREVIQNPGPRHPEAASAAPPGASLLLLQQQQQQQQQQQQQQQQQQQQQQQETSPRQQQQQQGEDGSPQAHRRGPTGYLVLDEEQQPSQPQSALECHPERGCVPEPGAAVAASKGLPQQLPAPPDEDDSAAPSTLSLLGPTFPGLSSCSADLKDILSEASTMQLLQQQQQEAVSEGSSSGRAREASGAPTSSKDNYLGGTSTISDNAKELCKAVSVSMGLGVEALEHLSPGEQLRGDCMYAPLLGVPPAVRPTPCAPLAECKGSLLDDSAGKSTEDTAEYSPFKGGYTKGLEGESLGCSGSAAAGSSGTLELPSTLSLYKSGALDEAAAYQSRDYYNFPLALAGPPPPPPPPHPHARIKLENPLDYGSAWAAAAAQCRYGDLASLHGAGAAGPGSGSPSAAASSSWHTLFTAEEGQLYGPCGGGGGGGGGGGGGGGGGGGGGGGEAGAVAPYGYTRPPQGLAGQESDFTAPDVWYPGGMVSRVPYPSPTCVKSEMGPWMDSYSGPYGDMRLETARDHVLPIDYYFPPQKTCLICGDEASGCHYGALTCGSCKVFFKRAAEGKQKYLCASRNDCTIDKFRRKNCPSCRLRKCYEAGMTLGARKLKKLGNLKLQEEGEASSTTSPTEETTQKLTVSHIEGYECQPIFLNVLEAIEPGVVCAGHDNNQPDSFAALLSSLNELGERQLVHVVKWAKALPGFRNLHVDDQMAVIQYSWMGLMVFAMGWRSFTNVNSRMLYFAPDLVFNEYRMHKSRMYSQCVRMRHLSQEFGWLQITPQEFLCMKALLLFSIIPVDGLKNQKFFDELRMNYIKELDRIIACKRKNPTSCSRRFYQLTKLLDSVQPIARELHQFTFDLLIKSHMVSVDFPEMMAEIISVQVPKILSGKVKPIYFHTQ
compound,measurement,setting,value
CC(C)[C@@H](C)/C=C/[C@@H](C)[C@H]1CC[C@H]2/C(=C/C=C3\C[C@@H](O)CC[C@@H]3C)CCC[C@]12C,Potency,[1],"inconclusive: 29.8 µM [falling, single point]"
same,Potency,[2],"inconclusive: 33.5 µM [inhibitor, single point]"
COC(=O)C[C@](O)(CCCC(C)(C)O)C(=O)O[C@@H]1C(OC)=CC23CCCN2CCc2cc4c(cc2[C@H]13)OCO4 (some centres undefined),Potency,[3],active: 75.6 nM and active: 67.4 nM
same,activation,[4],inconclusive: 0.873%
same,Potency,[5],"inconclusive: 298 nM [activator, partial curve] and inconclusive: 21.1 nM [activator, full curve, poor fit]"
CC(C)=CCC/C(C)=C/CC/C(C)=C/CC/C(C)=C/CC1=C(C)C(=O)c2ccccc2C1=O,Potency,[6],"inconclusive: 18.8 µM [cytotoxic, partial curve, poor fit]"
same,Potency,[2],"inconclusive: 33.5 µM [inhibitor, single point]"
same,Potency,[5],"inconclusive: 29.8 µM [activator, single point] and active: 10.6 µM"
CCN(CC)c1ccc(C(=C2C=CC(=[N+](CC)CC)C=C2)c2ccccc2)cc1,Potency,[3],inconclusive: 379 nM
same,Potency,[4],"inconclusive: 10.7 µM [falling, full curve]"
same,Potency,Aromatase (Homo sapiens),active: 3.35 µM
Clc1cc(Cl)c(OCC#CI)cc1Cl,Potency,[6],active: 9.44 µM
same,Potency,[7],active: 26.6 µM
C[C@H](O)[C@H](O)[C@H]1CNc2nc(N)[nH]c(=O)c2N1,Potency,[8],active: 12.6 µM
same,Potency,[9],"inconclusive: 12.6 µM [fluorescent, partial curve]"
same,Potency,[10],"inconclusive: 12.6 µM [fluorescent, partial curve]"
c1ccc2c(CCC3CCNCC3)c[nH]c2c1,Potency,[6],"inconclusive: 33.5 µM [cytotoxic, single point]"
same,Potency,[7],"inconclusive: 33.5 µM [falling, single point]"
CCCCC(F)(F)[C@@]1(O)CC[C@H]2[C@@H](CC(=O)[C@@H]2CCCCCCC(=O)O)O1,"activity change, negative = inhibition",[3],inconclusive: 20.8%
same,Potency,[4],"inconclusive: 23.9 µM [fluorescent, single point]"
same,Potency,Aromatase (Homo sapiens),"inconclusive: 0.0422 µM [inhibitor, partial curve, poor fit]"
CC12CCC(C1)C(C)(C)C2=O (centres undefined),Potency,[1],inactive
same,Potency,[3],inactive
NCCCC[C@H](NC(=O)[C@@H]1CCCN1C(=O)[C@@H]1CSSC[C@H](NC(=O)CNC(=O)CNC(=O)CN)C(=O)N[C@@H](Cc2ccc(O)cc2)C(=O)N[C@@H](Cc2ccccc2)C(=O)N[C@@H](CCC(N)=O)C(=O)N[C@@H](CC(N)=O)C(=O)N1)C(=O)NCC(N)=O,Potency,[1],inactive
CC[C@H]1OC(=O)[C@H](C)[C@@H](O[C@H]2C[C@@](C)(OC)[C@@H](O)[C@H](C)O2)[C@H](C)[C@@H](O[C@@H]2O[C@H](C)C[C@H](N(C)C)[C@H]2O)[C@](C)(O)C[C@@H](C)[C@@H]2N[C@@H](COCCOC)O[C@@H]([C@H]2C)[C@]1(C)O,Potency,[6],"inconclusive: 29.8 µM [cytotoxic, single point]"
C=C1C(=C/C=C2\CCC[C@]3(C)[C@@H]([C@H](C)CCCC(C)C)CC[C@@H]23)C[C@@H](O)C[C@@H]1O,Potency,[5],"inconclusive: 29.8 µM [activator, partial curve]"
O=C(O)CN(CC(=O)O)CC1=CC2C(=CC1=O)Oc1cc(O)c(CN(CC(=O)O)CC(=O)O)cc1C21OC(=O)c2ccccc21 (centres undefined),Potency,[11],"inconclusive: 23.9 µM [rising, partial curve]"
same,Potency,[7],"inconclusive: 26.6 µM [rising, partial curve]"
CCCc1nc(C(C)(C)O)c(C(=O)OCc2oc(=O)oc2C)n1Cc1ccc(-c2ccccc2-c2nn[nH]n2)cc1,Potency,[6],"inconclusive: 6.68 µM [cytotoxic, full curve, poor fit]"
CN=C1C=CC(=C(c2ccc(N(C)C)cc2)c2ccc(N(C)C)cc2)C=C1,Potency,[6],"inconclusive: 5.96 µM [cytotoxic, full curve, poor fit]"
same,Potency,[11],inconclusive: 26.8 µM [single point]
same,Potency,[4],inconclusive: 23.9 µM [partial curve]
same,Potency,Aromatase (Homo sapiens),active: 1.33 µM
same,Potency,[5],"inconclusive: 3.35 µM [activator, partial curve]"
same,Potency,[7],active: 6.68 µM
COc1ccc(C(=O)CCC(=O)O)c2ccccc12,Potency,[6],inactive
O=[N+]([O-])c1ccc(Oc2ccc(N=C=S)cc2)cc1,Potency,[6],"inconclusive: 16.8 µM [cytotoxic, partial curve]"
CC(=O)OCC(=O)[C@@]1(O)[C@H](C)C[C@H]2[C@@H]3C[C@H](F)C4=CC(=O)C=C[C@]4(C)[C@H]3[C@@H](O)C[C@@]21C,"activity change, negative = inhibition",[3],inconclusive: -19%
same,Potency,[11],active: 1.34 µM
same,Potency,[5],"inconclusive: 1.06 µM [activator, full curve, poor fit]"
C[N+]1(C)[C@@H]2CC(OC(=O)C(O)(c3cccs3)c3cccs3)C[C@H]1[C@@H]1O[C@@H]12 (some centres undefined),Potency,[7],"inconclusive: 33.5 µM [rising, partial curve, poor fit]"
CON=C1C[C@]2(C[C@@H]3C[C@@H](C/C=C(\C)C[C@@H](C)/C=C/C=C4\CO[C@@H]5[C@H](O)C(C)=C[C@@H](C(=O)O3)[C@]45O)O2)O[C@H](/C(C)=C/C(C)C)[C@H]1C,Potency,[11],inconclusive: 26.8 µM and inconclusive: 26.8 µM [single point]
same,Potency,[4],"inconclusive: 26.8 µM [cytotoxic, single point] and inconclusive: 26.8 µM [single point]"
C[C@H]1C[C@H]2[C@@H]3CCC4=CC(=O)C=C[C@]4(C)[C@@]3(F)[C@@H](O)C[C@]2(C)[C@@]1(O)C(=O)CCl,Potency,[7],"inconclusive: 33.5 µM [falling, single point]"
C#C[C@]1(OC(C)=O)CC[C@H]2[C@@H]3CCC4=CC(=O)CC[C@@H]4[C@H]3CC[C@@]21C,Potency,[1],"inconclusive: 21.1 µM [falling, partial curve]"
C[C@]12O[C@H](C[C@]1(O)CO)n1c3ccccc3c3c4c(c5c6ccccc6n2c5c31)CNC4=O,Potency,[11],"inconclusive: 0.12 µM [activator, full curve]"
same,Potency,[4],"inconclusive: 0.535 µM [falling, full curve]"
CC(C)C[C@@H]1NC(=O)[C@H](CCCN)NC(=O)[C@H](C(C)C)NC(=O)[C@@H]2CCCN2C(=O)[C@@H](Cc2ccccc2)NC(=O)[C@H](CC(C)C)NC(=O)[C@H](CCCN)NC(=O)[C@H](C(C)C)NC(=O)[C@@H]2CCCN2C(=O)[C@@H](Cc2ccccc2)NC1=O (cyclo(V[Orn]L[dF]PV[Orn]L[dF]P)),Potency,[6],active: 13.3 µM
same,Potency,[2],active: 0.841 µM
CC1C(=O)CC2C3(C)CCC2(C(C)C(=O)O)C(=O)C13 (centres undefined),Potency,[6],inactive
CCC(CN)CC(C)CCNCC(O)CNCC(C)CC(CC)CN (centres undefined),Potency,[6],inactive
same,Potency,[5],inactive
Cc1cc(-c2ccc(N=Nc3c(S(=O)(=O)O)cc4cc(S(=O)(=O)O)cc(N)c4c3O)c(C)c2)ccc1N=Nc1c(S(=O)(=O)O)cc2cc(S(=O)(=O)O)cc(N)c2c1O,Potency,[6],"inconclusive: 13.3 µM [cytotoxic, partial curve, poor fit]"
same,Potency,[7],active: 15 µM
CCC(=O)Oc1ccc2c(c1)CC[C@@H]1[C@@H]2CC[C@]2(C)[C@@H](OC(=O)CC)CC[C@@H]12,Potency,[3],"inconclusive: 30100 nM [rising, partial curve, poor fit]"
same,Potency,[11],active: 2.39 µM
same,Potency,[12],"inconclusive: 4.22 µM [inhibitor, partial curve, poor fit]"
same,Potency,Aromatase (Homo sapiens),"inconclusive: 33.5 µM [inhibitor, single point]"
same,Potency,[7],"inconclusive: 33.5 µM [falling, single point]"
